B1: tRNA (parent)
chain: CUCUCGGUAGCCAAGUUGGUUUAAGGCGCAAGACUUUAAUUUAUCACUACGAAAUCUUGAGAUCGGGCGUUCGACUCGCCCCCGGGAGAUUUUUUCCUCGAGCAA

Variants at the background level are over-represented here.

Variants of B1 are the subject of the data set. Put plainly: nonsense suppression (GFP-seq) (ratio to wild type); higher = more function; SUP4oc tRNA, yeast GFP reporter sort-seq. In a few lines:
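To measure nonsense suppression, tRNA variants from a library carrying ~3% random mutations were integrated into the yeast genome alongside RFP and a GFP ochre reporter under galactose control. Growth took place in raffinose/galactose medium supplemented with 80 mg/L adenine, followed by sorting into GFP/RFP bins and Illumina sequencing of each bin (phred ≥30). For each variant with ≥100 reads and ≥30 cells, the bin median GFP/RFP values were weighted by its estimated cell share per bin and referenced to the unmutated parent tRNA.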
As to C11U A31G C77G, the nonsense suppression was not above 0.026.
As for U16A C34A U70A C75U, the figure is not above 0.026; as for C56A A74C C81G, not above 0.026; as for U2A U8G C12G G32A U57C C64A, not above 0.026.
Next, C12U U55C U58G: not above 0.026.
Next, A62C G66C: not above 0.026; A24C U55G C79G: not above 0.026.
For G28U A54C, the nonsense suppression was not above 0.026.
On to A54U A87G, for which the nonsense suppression came out at 0.867.
On to A14C G19C U57C G73U, for which the nonsense suppression was not above 0.026.
Regarding A13U C29G A74G, the nonsense suppression was not above 0.026.
As to A33U U63A, the nonsense suppression was 0.0268.
Next, U57C G67C U70C U71G C77A: not above 0.026.
Next, C34A U70G G73C C77G C82A: not above 0.026; A9U A54G: 0.0306.
As to A30C A60U U71C, the nonsense suppression was not above 0.026.
Next, G65C G88A: not above 0.026; A23U A24G C64G: not above 0.026; A13U G19C U21G A24U C83U G86C: not above 0.026.
For U55C G67C A89G, the nonsense suppression was not above 0.026.
Next, C11G G18A C29G U35G U58G A62U: not above 0.026; G59U G88A: not above 0.026; A23U C80G: not above 0.026.
For U4G A9G C68G, the nonsense suppression is not above 0.026.
As to C5A A13U A74U, the nonsense suppression was not above 0.026.
U8A U17G: the nonsense suppression was not above 0.026.
Consider G10U A54C C81G, for which the nonsense suppression was not above 0.026.
Regarding U58G C64G C80A, the nonsense suppression was not above 0.026.
Next, G18C C29U U70G C81A: not above 0.026; G25U A31U G65A C82G: not above 0.026; A33U C77A C80A: not above 0.026.
Next, U20C A24G: not above 0.026.
Next, U4C U8A U17G A31C U70C: not above 0.026; A9G G61C: 1.06.
For the variant U20G A30G C64A C82G C83U, the nonsense suppression was not above 0.026.
Take U2C C11G A24G G84U: the nonsense suppression is not above 0.026.
As for C64U U71G, the figure is not above 0.026; as for A30U G65C C72A C81U, not above 0.026; as for C75A, 0.996.
C75G: the nonsense suppression turned out to be 1.04.
As for U2A U8C C34U U57C U63G, the figure is not above 0.026; as for C5A G6C, not above 0.026.
Next, A62C G84A G85U G86A: not above 0.026; G65A C79G A89G: not above 0.026.
For the variant C3A A62G, the nonsense suppression was not above 0.026.
Consider G7A C83G, for which the nonsense suppression was not above 0.026.
In the case of C5G A23C G61C, the nonsense suppression was not above 0.026.
Next, U22G C29G C34A: not above 0.026; U16C U17C U21G G25U U57G: not above 0.026.
Regarding C12U G84C, the nonsense suppression is not above 0.026.
As for U4G U20A A33G G66C, the figure is not above 0.026.
Next, A14G U35A U57C A62C: not above 0.026.
Next, C27U U70A: not above 0.026.
For U21C A30U G88U, the nonsense suppression was not above 0.026.
As for C3U A31C, the figure is not above 0.026.
Next, C3U C12A U17G U20C U71G A89C: not above 0.026.
Take A30G C56A G67U: the nonsense suppression was not above 0.026.
For U17A A74C G84C, the nonsense suppression was not above 0.026.
A9G A30C U35C: the nonsense suppression is not above 0.026.
A30C U70C: the nonsense suppression is not above 0.026.
As for G78C, the nonsense suppression worked out at 0.202.
As for U20C G25U A89C, the figure is not above 0.026; as for U16C A24G G61U G65C, not above 0.026; as for U4A C12G C29U A31G A54U G67A U76C A89C, not above 0.026.
With U8G A60U G61C G69C, the nonsense suppression was not above 0.026.
As for G6C G65A G66U, the figure is not above 0.026; as for U4A A30U, not above 0.026.
Next, U20G U21G G28U U63C C81G G85U: not above 0.026; G18C A23U C27A G32C A54C G65C: not above 0.026.
In the case of U4C A24U U63A G88C, the nonsense suppression is not above 0.026.
Next, U4A C56U C64A G65A G66C G73U: not above 0.026.
Turning to G6U A9G G10C U58G A89G, the nonsense suppression was not above 0.026.
As for U2C A31U, the figure is not above 0.026; as for U55A A62U, not above 0.026.
Regarding A24G G65A A74C, the nonsense suppression was not above 0.026.
Next, A31U G67A G78C: not above 0.026; G32U A74G C81A A89U: not above 0.026; G7C G15U G32A C82A: not above 0.026.
As for U8G G19U U22C G32U A33G, the figure is not above 0.026; as for A74G G78C C80G, not above 0.026; as for A33U U55C, not above 0.026.
Turning to U22A A23G U57C U71G C82U G85C, the nonsense suppression is not above 0.026.
As for A13U G88C, the figure is not above 0.026.
In the case of G6A A13G U57C C68A, the nonsense suppression is not above 0.026.
As for U57A U76C A89U, the figure is not above 0.026; as for U2C U22C C64A A74U G88U, not above 0.026.
As to G15C U22A G86A, the nonsense suppression is not above 0.026.
Regarding C12A G18U G66A U70C C77G C83U, the nonsense suppression is not above 0.026.
For A62C C64G U76C C79G, the nonsense suppression was not above 0.026.
As for U57A U63C, the figure is 0.0744; as for C34U U58A U71C, not above 0.026; as for U57A G65C G86C, not above 0.026.
As for G10U G19U A74C, the figure is not above 0.026.
Next, C1A G10U A23C U55A: not above 0.026; U21G G28C A60C C81G: not above 0.026.
For G6U A23U C56U, the nonsense suppression is not above 0.026.
As for U21G G59U A62C C82U, the nonsense suppression was not above 0.026.
As for G32U A74C A87C, the figure is not above 0.026.
Turning to G7C C12G G26U A89C, the nonsense suppression was not above 0.026.
Next, A13C A31G A60U C77A: not above 0.026; G67A A87U: not above 0.026.
As for U55C C75A, the figure is 1.05; as for G28A C68U, 1.17.
As for U2C G78A, the figure is 0.0386; as for G15A A62U C80A, not above 0.026; as for A24G A33U C77A, not above 0.026.
As for A14C A31U A33U, the nonsense suppression is not above 0.026.
Turning to U22G G65C A87U, the nonsense suppression is not above 0.026.
On to G7U G85C, for which the nonsense suppression was not above 0.026.
As for G25U G67U U76A, the figure is not above 0.026; as for U17C C29A G65A C72U C77U, not above 0.026; as for U17G A31U, not above 0.026.
Next, A62C C72A: not above 0.026; A23G U71A: not above 0.026; U16G A24U: 0.221.
Take G25U U63C U76G: the nonsense suppression was not above 0.026.
On to G7U U71A, for which the nonsense suppression is not above 0.026.
In the case of C5A G25C A74U, the nonsense suppression was not above 0.026.
Take U16A G32U G73A: the nonsense suppression was not above 0.026.
In the case of A54U C64U U71A C72A, the nonsense suppression was not above 0.026.
With U57A G59A U70C A74C, the nonsense suppression was not above 0.026.
As for A24C C29G G61A U71C, the nonsense suppression was not above 0.026.
With C34U C79U, the nonsense suppression is not above 0.026.
Consider A13U A30U, for which the nonsense suppression is 0.0763.
In the case of C11G G19C A24G A74G A87G, the nonsense suppression is not above 0.026.
As for C34G G61U, the figure is not above 0.026; as for G10A C29G A54G, not above 0.026; as for G25C C82G, not above 0.026.
Next, C11U A23C C27A: not above 0.026; A9C G61C G73C: not above 0.026.
C12A U70A: the nonsense suppression was not above 0.026.
In the case of C29U G67C, the nonsense suppression was not above 0.026.
As for U8A C27U, the figure is not above 0.026; as for G25C C34G, not above 0.026; as for A33U U58A G66A G69A C82U, not above 0.026.
Regarding A9G C11U G61C, the nonsense suppression is not above 0.026.
With U2A A33C G69U C79G G86A, the nonsense suppression is not above 0.026.
With U4C A13G U16G G19C A23U U57G, the nonsense suppression is not above 0.026.
Next, G18C A23U A89U: not above 0.026; U2G U16C U71G: not above 0.026; C72U: not above 0.026.
As for U2A G59C, the figure is not above 0.026; as for C27A G69A, not above 0.026.
As to A9G U22C, the nonsense suppression came out at 0.323.
As for U21A C34U, the figure is not above 0.026; as for U57G A87C, not above 0.026; as for G10U U57A G65C, not above 0.026.
As for A60G G84A, the figure is 0.269; as for A14U U21G, not above 0.026.
With A33G G69A C72U, the nonsense suppression is not above 0.026.
Take C29G A74C: the nonsense suppression was not above 0.026.
As to A14U U21A U55G C81G C82U, the nonsense suppression was not above 0.026.
Next, C11A A31G A60C: not above 0.026; A13C C80U: 0.179; C5G C12G U21G A62C: not above 0.026.
For G6U G19A U22G, the nonsense suppression is not above 0.026.
In the case of U4G U70C G86C, the nonsense suppression is not above 0.026.
For the variant C3U G28U G32A A33G, the nonsense suppression is not above 0.026.
Next, A14C G65A C82G: not above 0.026.
On to G28A U71A, for which the nonsense suppression is not above 0.026.
For the variant U55C G59C, the nonsense suppression was not above 0.026.
As to C3G A33U C34U A62G G67C, the nonsense suppression is not above 0.026.
For the variant A13U G65U, the nonsense suppression was determined as 0.0575.
On to U21A U35G, for which the nonsense suppression was not above 0.026.
As for C3A U57A G67U, the figure is not above 0.026; as for U2C A33U C34A G88U, not above 0.026.
As for G18A C75A U76C G86A, the figure is not above 0.026.

For the origin of these results see the RNAGym collection of RNA variant scans (doi:10.1101/gad.245936.114).
